For assay [1], the system named is SR leukemia. As to the kind of experiment: growth of human tumour cells (NCI), 48 h.
For assay [2], the system named is SF-539 CNS. As to the kind of experiment: growth of human tumour cells (NCI), 48 h.

Each structure is given as a SMILES string.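 Five concentrations, 48 hours, 96-well plates. TGI: total growth inhibition.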 For part of its entries the source gives two or more results. This list holds those alone. There may be further records. A record mostly stands for its own series of concentrations, which the source does not state; a value can be the end of its range.

Turning to `CCC1(O)C(=O)OCc2c1cc1n(c2=O)Cc2cc3ccc(C=O)cc3nc2-1` (configuration not stated), the TGI is 477 nM and < 30.1 nM in assay [1]; 50 µM and 2.83 µM in assay [2].

The values above are taken from PubChem BioAssay (NCI).
